About 14,000 (4.5%) of roughly 310,000 compounds showed an effect of 50% or more. Effects have a minus sign here. The list shows a part of the results.
Target: human ether-à-go-go-related gene (hERG) potassium channel (human, UniProt Q12809)
Assay: primary screen, population patch clamp on CHO cells stably expressing hERG
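Also: peak tail current of the secondary pulse compared with the same well before compound.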

human ether-à-go-go-related gene (hERG) potassium channel, sequence (Q12809 whole entry, looked up): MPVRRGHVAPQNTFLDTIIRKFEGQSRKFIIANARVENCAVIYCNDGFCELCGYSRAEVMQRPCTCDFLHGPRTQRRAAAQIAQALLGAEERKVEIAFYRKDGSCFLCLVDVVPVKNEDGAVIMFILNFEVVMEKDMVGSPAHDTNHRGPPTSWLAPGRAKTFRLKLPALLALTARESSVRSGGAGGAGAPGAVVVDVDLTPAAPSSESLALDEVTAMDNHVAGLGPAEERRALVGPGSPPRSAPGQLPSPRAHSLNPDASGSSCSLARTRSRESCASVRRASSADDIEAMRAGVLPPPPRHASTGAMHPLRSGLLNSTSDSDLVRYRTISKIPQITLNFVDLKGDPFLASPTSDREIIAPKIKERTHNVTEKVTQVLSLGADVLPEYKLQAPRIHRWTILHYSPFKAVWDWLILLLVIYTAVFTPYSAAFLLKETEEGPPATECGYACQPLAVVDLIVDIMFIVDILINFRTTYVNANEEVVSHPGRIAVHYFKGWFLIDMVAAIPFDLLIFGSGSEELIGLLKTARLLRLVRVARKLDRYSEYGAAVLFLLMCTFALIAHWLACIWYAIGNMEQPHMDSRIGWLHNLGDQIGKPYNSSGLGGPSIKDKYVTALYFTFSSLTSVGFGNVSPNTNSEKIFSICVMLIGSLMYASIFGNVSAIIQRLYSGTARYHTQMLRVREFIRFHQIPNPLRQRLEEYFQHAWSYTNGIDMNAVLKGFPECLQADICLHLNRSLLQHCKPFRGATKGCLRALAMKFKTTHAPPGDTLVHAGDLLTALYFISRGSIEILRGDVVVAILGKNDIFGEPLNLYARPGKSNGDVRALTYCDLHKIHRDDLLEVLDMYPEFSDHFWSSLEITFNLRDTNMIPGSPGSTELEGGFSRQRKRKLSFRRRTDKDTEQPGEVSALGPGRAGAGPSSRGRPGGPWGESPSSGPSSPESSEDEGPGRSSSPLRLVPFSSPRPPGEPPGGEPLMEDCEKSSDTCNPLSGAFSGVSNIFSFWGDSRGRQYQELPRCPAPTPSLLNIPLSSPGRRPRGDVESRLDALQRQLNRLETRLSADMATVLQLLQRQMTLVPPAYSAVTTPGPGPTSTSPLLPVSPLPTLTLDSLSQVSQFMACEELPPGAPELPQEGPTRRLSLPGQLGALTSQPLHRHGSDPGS

Row | Compound | hERG current change (%, negative = inhibition) at 10uM
1 | O=C(Oc1cccc(N2C(=O)CCC2=O)c1)C1CC(=O)N(c2ccc(Br)cc2)C1 (centres unmarked) | -3.94%
2 | Cc1ccccc1NC(=O)C(C)SCc1ccccc1 (centres unmarked) | -6.37%
3 | CSc1ccc(C2NN=C(c3ccccc3)S2)cc1 (centres unmarked) | -32.7%
4 | COc1cc(OC)cc(C(=O)NN(CCC#N)C2=NS(=O)(=O)c3ccccc32)c1 | 14.8%
5 | C=CCOC(=O)/C=C/C(=O)NC(N)=O | 14.6%
6 | CCOC(=O)C(/C(N)=N/C(=O)Nc1ccccc1)=C(\C)O | 5.23%
7 | CC(=O)c1c(C)[nH]c(C(=O)COc2ccc3c(C)cc(=O)oc3c2)c1C | 7.54%
8 | CCOc1ccc(NC(=O)Nc2cccn(Cc3ccccc3)c2=O)cc1 | 13.7%
9 | CC(C)(C)c1csc(NC(=O)Cc2cccs2)n1 | 6.32%
10 | CC(C(=O)N/N=C/c1ccc(N(C)C)c(Br)c1)N(c1ccccc1)S(C)(=O)=O (centres unmarked) | -1.12%
11 | CCN1CCN(S(=O)(=O)Cc2ccccc2Cl)CC1 | 10.5%
12 | CC(C)Cn1c(N)c(C(=O)NCC2CCCO2)c2nc3ccccc3nc21 (centres unmarked) | -22.3%
13 | COc1ccc(C(=O)NC(=S)Nc2ccccc2F)cc1 | 9.53%
14 | Cc1ccc(NC(=O)CSC(C)C(=O)OC(C)C(=O)NC2CCCCC2C)cc1 (centres unmarked) | -6.64%
15 | COc1cccc(CC(=O)OCC(=O)NNC(=O)c2ccc(Br)cc2)c1 | -1.87%
16 | Cc1nn(C)c(C)c1NC(=O)CCSc1nc(-c2ccco2)cc(C(F)(F)F)n1 | -5.5%
17 | O=C(O)CCCNC(=O)CC1S/C(=N/N=C/c2ccccc2O)NC1=O (centres unmarked) | 22.8%
18 | CCN1CCN(Cc2cc(=O)oc3cc(C)cc(C)c23)CC1 | -68.1%
19 | FC(F)Oc1ccc(/C=N/NC(=S)Nc2cc(C(F)(F)F)ccc2Cl)cc1 | 8.33%
20 | O=[N+]([O-])c1ccc(Nc2cccc(F)c2)nc1 | 14%
21 | Cc1cccc(-n2nnc(C(=O)NCc3ccccc3)c2N)c1 | -6.41%
22 | CCOc1ccc2nc(SCC(=O)Nc3nonc3C)[nH]c2c1 | 14%

Row | Compound | hERG current change (%, negative = inhibition) at 10uM
23 | CCc1ccc(/C=N/NC(=O)c2cc(-c3ccncc3)nc3ccccc23)s1 | -5.07%
24 | CC(C)CNc1nc(N)c([N+](=O)[O-])c(NCC2CCCO2)n1 (centres unmarked) | -10.7%
25 | COc1ccc(-c2cc(=O)oc3c(C)c(O)c(CN(C)C)cc23)cc1 | -18.9%
26 | Cc1ccc(NC(=S)N2CCC(c3ccc(C)cc3)C2)cc1 (centres unmarked) | 3.6%
27 | CCN=c1sc2ccccc2n1CC(O)COc1ccccc1 (centres unmarked) | -44%
28 | Cc1cc(NC(=O)CCC(=O)N(c2ccccc2)C(C)C(=O)NC2CCCC2)no1 (centres unmarked) | 11.7%
29 | C=CCNc1cc(N2CCCC2)ccc1[N+](=O)[O-] | 18.2%
30 | O=C(Nc1nc2c(Cl)ccc(Cl)c2s1)c1ccco1 | 14.1%
31 | O=C1CS/C(=C\[N+](=O)[O-])N1c1ccc(OC(F)(F)F)cc1 | -2.61%
32 | Cc1nc(C(F)(F)F)ccc1C(=O)Nc1ccc(C(F)(F)F)cn1 | 4.72%
33 | Cc1nnc(C)c2c(C)n(-c3ccc4ncccc4c3)c(C)c12 | -21.5%
34 | CC(C)(C)NC(=O)C(c1ccc(F)cc1)N(CCc1ccccc1)C(=O)c1ccn[nH]1 (centres unmarked) | -10.3%
35 | O=C(Nc1ccc(C(F)(F)F)cc1)c1cccnc1N1CCOCC1 | -11.6%
36 | CCOC(=O)c1c(C)[nH]c(C(=O)OCc2ccc(F)cc2)c1C | -0.855%
37 | Cc1cccc(NC(=O)CCN2CC(C)CC(C)C2)c1.Cl (centres unmarked) | -49.2%
38 | Cc1cccc(C)c1NC(=O)C(NC=O)c1ccccc1 (centres unmarked) | -64.1%
39 | O=C(c1ccccc1)N1CCCC(c2ccc(Cl)cc2)=N1 | 5.35%
40 | CCCCNC(=O)Oc1c(Br)cc2sc(=O)oc2c1Br | 8.56%
41 | N#CC1=C(N)NC(SCc2ccc(F)cc2)=C(C#N)C12CCCCC2 | -8.87%
42 | Cc1nn(C)c(C)c1NC(=O)c1ccc(Br)o1 | 5.89%
43 | CCOC(=O)N1CCC(N2Cc3cccc(C(=O)Nc4ccc(CC)cc4)c3C2=O)CC1 | -42.6%
44 | Cc1ccc(N=Nc2c(O)[nH]c(=O)[nH]c2=O)c([N+](=O)[O-])c1 | -5.68%
